The source of these data is article PMC3029397, “Bifunctional Avidin with Covalently Modifiable Ligand Binding Site” (PLoS ONE, 2011).

Numbering of substitutions follows the chain as printed. Numbers in names are those of the source.

The series concerns the molecule itself. In words: SDS-PAGE-based thermostability assay; with D-biotin; samples acetylated in vitro, heated 20 min at temperatures between RT and 100°C in SDS-PAGE buffer with β-mercaptoethanol, 15% SDS-PAGE, Coomassie staining.

B1: wild type avidin (natural protein)
chain: QTVARKCSLTGKWTNDLGSNMTIGAVNSRGEFTGTYITAVTATSNEIKESPLHGTQNTINKRTQPTFGFTVNWKFSESTTVFTGQCFIDRNGKEVLKTMWLLRSSVNDIGDDWKATRVGINIFTRLRTQKE
modifications: N-terminal glutamine partly cyclised to pyrrolidone carboxylic acid (PCA); intramolecular disulfide Cys4-Cys83; acetylated in vitro for the SDS-PAGE thermostability assay
notes: avidin; theoretical mass with QTV and one disulfide 14668.43 Da; numbers count on: the mature protein (QTV numbered -3 to -1); Expressed from pET101/D-TOPO behind the B. avium OmpA signal peptide; also called wt avidin; Avd
For B1, the binding result is “binds”.

B2: Avd(S16C) (natural protein)
chain: B1 chain with S19C
modifications: N-terminal glutamine partly cyclised to pyrrolidone carboxylic acid (PCA); intramolecular disulfide Cys4-Cys83; acetylated in vitro for the SDS-PAGE thermostability assay
notes: avidin with S16C; theoretical mass with QTV and one disulfide 14684.41 Da; numbers count on: the mature protein (QTV numbered -3 to -1); Expressed from pET101/D-TOPO behind the B. avium OmpA signal peptide; also called avidin S16C
On to B2, for which the binding result is on record as “binds”.
